Measured values reported in patent publication US7235262B2, “Use of bioactive fraction from cow urine distillate (‘Go-mutra’) as a bio-enhancer of anti-infective, anti-cancer agents and nutrients” (Council of Scientific and Industrial Research, priority 2000, dated 2007).

Tested on: Escherichia coli
Assay: Broth assay for bio-enhancement of antibiotic killing, Gram-negative bacterium
Details: cow urine distillate 1 μl/mL

Structure (SMILES)	Survival fraction of viable cells upon treatment with antibiotic + cow urine distillate combination (antibiotic 4 μg/ml)	Survival fraction of viable cells upon treatment with antibiotic + cow urine distillate combination (antibiotic 6 μg/ml)	Survival fraction of viable cells upon treatment with antibiotic + cow urine distillate combination (antibiotic 8 μg/ml)	Survival fraction of viable cells upon treatment with antibiotic + cow urine distillate combination (antibiotic 10 μg/ml)	Survival fraction of viable cells upon treatment with antibiotic + cow urine distillate combination (antibiotic 30 μg/ml)
CC1(C)S[C@@H]2[C@H](NC(=O)[C@H](N)c3ccccc3)C(=O)N2[C@H]1C(=O)O [Ampicillin]	0.60	0.02	0.01	–	–
CO[C@H]1/C=C/O[C@@]2(C)Oc3c(C)c(O)c4c(O)c(c(/C=N/N5CCN(C)CC5)c(O)c4c3C2=O)NC(=O)/C(C)=C\C=C\[C@H](C)[C@H](O)[C@@H](C)[C@@H](O)[C@@H](C)[C@H](OC(C)=O)[C@@H]1C [Rifampicin]	–	–	–	0.17	0.007
